Measured values published in PubChem BioAssay AID1345082 (National Center for Advancing Translational Sciences (NCATS), 2018).
“And” between values parts separate entries of the source, which are not always exact repeats. Equal entries are not always repeated. The campaign covered roughly 94,000 compounds. About 4,000 (4.3%) were called active. This list was built around the results that the source calls inconclusive (neither active nor inactive); the mix of calls is not that of the screen. Calls come from the whole dose curve; as a rule, active = well fitted inhibition curve with a large enough effect; inconclusive = small, poorly fitted or top-dose-only effect; inactive = no such curve, though single readings can be large or run the other way. Potencies of inconclusive entries are doubtful fits and often do not repeat.

Assay: Cytotoxic Profiling in NIH 3T3 Cell Line of Diverse Libraries Using Quantitative High-Throughput Screening; note: nearly all actives have a fitted effect of over 55% in size
Details: NIH 3T3 viability, CellTiter-Glo ATP luminescence, 48-72 h; series mostly up to 96.7 µM
How it was run: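 Cytotoxicity is measured as loss of cellular ATP: NIH 3T3 cells (400/well) are exposed to compound for 48 or 72 hr at 37 °C, then CellTiter-Glo luminescence is imaged after 10 min at room temperature.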
Potency is the fitted concentration of half-maximal effect; tags give direction and shape of the fitted curve.

SMILES | Potency
COCCNC(=O)[C@@H]1C[C@@H](O)CN1C1CCN(C(=O)CC2CCCCC2)CC1 | inactive
C[S+](=O)([O-])c1cccc(-c2ncc3c(n2)OCCN(Cc2ccc(F)cc2F)C3=O)c1 | active: 28.2 µM
Cn1ccnc1CN1CCCC(NC(=O)c2ccc3c(c2)CCCO3)CC1 (stereo not drawn) | inactive
O=C(Nc1ccccc1)c1cnc2c(c1)N([S+](=O)([O-])c1cccnc1)CCC2 | inconclusive: 112 µM [inhibitor, single point]
Cn1nc(C(=O)N2CCC(Oc3ccc(-c4noc(C5CC5)n4)cc3)C2)c2ccccc21 (stereo not drawn) | inconclusive: 44.7 µM [inhibitor, partial curve, poor fit]
Cc1ccc(CCNC(=O)c2cc3n(n2)CC(c2ccc4c(c2)OCO4)OC3)cc1 (stereo not drawn) | inconclusive: 44.7 µM [inhibitor, partial curve, poor fit]
CN(C)C(=O)c1cccn2cncc12 | inactive
COc1ccc(OCc2nc(C)c(CCO)c(=O)n2CC(=O)Nc2cc(OC)ccc2OC)cc1 | inactive
Cn1c(Cn2cccn2)nnc1C1CC(NC(=O)CN2CCCCCCC2)C1 (stereo not drawn) | inactive
O=C(c1cccc(Cl)c1)N1CCCC(c2nn(-c3cccc(Cl)c3)c(=O)[nH]2)C1 (stereo not drawn) | inconclusive: 44.7 µM [inhibitor, partial curve, poor fit]
Cc1nc2c(c(-c3ccc(O)cc3)n1)CN(C(=O)c1ccccc1Cl)CC2 | inactive
CCCCNC(=O)CCCN1C(=O)COc2ccc(C(C)(C)CC)cc21 | inconclusive: 50.1 µM [inhibitor, partial curve, poor fit]
COCCNC(=O)CCc1nc(C2CCCN2C(=O)c2ccccc2)no1 (stereo not drawn) | inactive
O=C(c1ccc2nc(-c3ccnc(Cl)c3)oc2c1)N1CCOCC1 | inconclusive: 56.2 µM [inhibitor, partial curve, poor fit]
CCCCOC(=O)N1C[C@@H](C(N)=O)[C@@H]2Oc3c(C)cccc3[C@@H]21 | inactive
Brc1ccc(-c2ccnc3nc(C4CCCO4)nn23)s1 (stereo not drawn) | inconclusive: 50.1 µM [inhibitor, partial curve, poor fit]
COc1ccc(Cl)cc1NC(=O)c1cc(-c2ccc[nH]2)n[nH]1 | inconclusive: 39.8 µM [inhibitor, partial curve]
Cc1ccc(NC(=O)Cn2c(-c3ccccc3)nc(C)cc2=O)c(C)c1 | inconclusive: 35.5 µM [inhibitor, partial curve, poor fit]
Cc1nn2c(c1-c1ccccc1OCc1ccccc1)N(C(=O)CN1CCOCC1)CCC2 | inconclusive: 50.1 µM [inhibitor, partial curve, poor fit]
COc1cccc(N2C(=O)NC(=NC3CCCC3)C23CCCN(Cc2ccc(N(C)C)cc2)C3)c1 (stereo not drawn) | inconclusive: 44.7 µM [inhibitor, partial curve, poor fit]
C=CCCOC(=O)N1C[C@@H](CO)[C@@H]2Oc3ccc(Cl)cc3[C@@H]21 | inconclusive: 50.1 µM [inhibitor, partial curve, poor fit]

SMILES | Potency
CCOc1cc(=O)n2c(c1C(=O)Nc1ccc(F)c(C)c1)CCCC2 | inactive
O=C(NCC1CCCN(C(=O)c2ccsc2)C1)c1ccc(-c2ccccc2)cc1 (stereo not drawn) | inconclusive: 56.2 µM [inhibitor, partial curve, poor fit]
Cc1cc2nc3n(c(=O)c2n1CC(=O)Nc1ccc(Br)cc1)CCCC3 | inconclusive: 56.2 µM [inhibitor, partial curve, poor fit]
COc1ccc(C(=O)Nc2ccc3n(c2=O)C[C@H]2C[C@@H]3CN(S(=O)(=O)c3ccc(OC)cc3)C2)cc1 | inactive
COc1cccc(-c2ccc(C(=O)N3CCC(C(=O)NCC(F)(F)F)CC3)cc2)c1 | inconclusive: 39.8 µM [inhibitor, partial curve, poor fit]
COc1ccc(-c2noc(CC3CCN(C(=O)Cc4ccc(OC)c(OC)c4)CC3)n2)cc1 | inconclusive: 12.6 µM [inhibitor, partial curve, poor fit]
CN1CCc2[nH]cnc2C12CCN(C(=O)c1cccc(-n3cccn3)c1)CC2 | inactive
O=C(NCc1ccc(-c2cnc3c(Oc4ccccc4)nccn23)cc1)c1cccc(O)c1 | inconclusive: 28.2 µM [inhibitor, full curve]
Cn1cnc([S+](=O)([O-])N2CCC3CC(=O)NCCC3C2)c1 (stereo not drawn) | inactive
COc1ccccc1-c1cccc(CN2CCCC(C(=O)N3CCCC(C)C3)C2)c1 (stereo not drawn) | inconclusive: 44.7 µM [inhibitor, partial curve, poor fit]
COc1ccc(NC(=O)c2ccc3c(c2)C2(CCN(C)C2)CN3CC2CC2)cc1 (stereo not drawn) | active: 25.1 µM
O=C(NCC1CCCO1)c1csc(N2CCN(c3ccccc3F)CC2)n1 (stereo not drawn) | inconclusive: 44.7 µM [inhibitor, partial curve, poor fit]
O=C(c1cc2n(n1)CC(c1ccc(Cl)cc1)OC2)N1CCN(c2ccc(Cl)cc2)CC1 (stereo not drawn) | inconclusive: 50.1 µM [inhibitor, partial curve, poor fit]
CCS(=O)(=O)N1CCCC(Cc2ncc(C)n2Cc2ccc(F)cc2)C1 (stereo not drawn) | inactive
CCN1c2cc(C(=O)NCc3ccc(SC)cc3)ccc2C(=O)N2CCCCCC21 (stereo not drawn) | inconclusive: 70.8 µM [inhibitor, single point]
O=C(Nc1ccccc1F)C1CCN(C(=O)c2ncn3c2COC(c2ccc(F)cc2)C3)CC1 (stereo not drawn) | inactive
CN1[C@@H](CCC(=O)NCc2cccs2)CNC(=O)[C@@H]2[C@H]1CCN2Cc1cccc(OC(F)(F)F)c1 | inconclusive: 56.2 µM [inhibitor, partial curve, poor fit]
CN(CC[C@H]1CN(C(=O)NC2CCCCC2)CC[C@H]1CC(=O)O)c1ccccc1 | inconclusive: 25.1 µM [inhibitor, full curve, poor fit]
COC(=O)[C@H](NC(=O)[C@@H]1C[C@H](NC(=O)Nc2ccc(OC)cc2)CN1C(=O)CSC)C(C)C | inconclusive: 89.1 µM [inhibitor, single point]
O=C(Cc1ccccn1)N1CCCC1C(=O)N1CCCC1c1nc2ccncc2[nH]1 (stereo not drawn) | inactive
COc1ncccc1-c1nc(-c2c(C)noc2C)cc2c1cc(C)n2C | inconclusive: 17.8 µM [inhibitor, partial curve, poor fit]

SMILES | Potency
O=C(c1cccc(Cl)c1)N1CCC(C(=O)N2CCC(N3Cc4ccccc4C3=O)CC2)CC1 | inconclusive: 44.7 µM [inhibitor, partial curve] and inconclusive: 50.1 µM [inhibitor, partial curve, poor fit]
CC1Oc2ccc(NC(=O)COc3ccccc3)cc2CN(Cc2ccccc2)C1=O (stereo not drawn) | inconclusive: 31.6 µM [inhibitor, full curve, poor fit]
COCCN1CC(CO)C2(CCN(Cc3ccc(OC)cc3OC)CC2)C1 (stereo not drawn) | inconclusive: 50.1 µM [inhibitor, partial curve, poor fit]
COc1ccc(CCNC(=O)c2ccc3nnc(-c4ccc(Cl)cc4)n3c2)cc1 | inactive
COc1ccc(-c2nnc(C[C@@H]3C[C@@H](C(C)C)[C@H](CN(C)CCc4ccccn4)C=C3C)o2)cc1 | active: 35.5 µM
COc1cc(F)ccc1-c1cc(C(=O)NCc2cccnc2)c2c(c1)ncn2C | inconclusive: 100 µM [inhibitor, single point]
COc1ccccc1Cn1c(=O)c(C(=O)NCC(F)F)nc2cccnc21 | inactive
COc1ncccc1CN1CC[C@@H]2OCC(=O)N(Cc3ccccc3)[C@H]2CC1 | active: 100 µM
O=C(NCCOc1ccccc1)c1cc(COc2ccccc2)[nH]n1 | inconclusive: 89.1 µM [inhibitor, single point]
C=CCNC(=O)c1csc2nc(-c3cccc(C(F)(F)F)c3)cn12 | inconclusive: 44.7 µM [inhibitor, partial curve, poor fit]
COc1cccc(CCc2nc(-c3nnn4c3COC(c3ccc(Cl)cc3)C4)no2)c1 (stereo not drawn) | inactive
COCCN1CCC2(C1)CN(C)c1ccc(C(=O)Nc3ccccc3)cc12 (stereo not drawn) | inconclusive: 56.2 µM [inhibitor, partial curve, poor fit]
COc1ccc(-n2nc(C3CCN(Cc4cccn4C)CC3)[nH]c2=O)cc1 | inconclusive: 50.1 µM [inhibitor, partial curve, poor fit]
CCN1Cc2cc(F)ccc2N(C[C@@H](O)COCc2ccccc2)CCC1=O | inactive
CCc1c(C(=O)N2CCC(CO)(Cc3ccccc3)CC2)[nH]c2ccccc12 | inconclusive: 50.1 µM [inhibitor, partial curve, poor fit]
COc1ccc(NC(=O)O[C@@H]2CO[C@H]3[C@@H]2OC[C@@H]3Nc2nccc(-c3cccc(F)c3)n2)cc1 | inconclusive: 79.4 µM [inhibitor, single point]
C[C@H](N)C(=O)N1CCC(n2nccc2NC(=O)Nc2ccccc2Cl)CC1 | inactive
Cn1ncc2c(C(=O)N3CCN(c4ncccn4)CC3)cc(-c3ccc(C(F)(F)F)cc3)nc21 | inconclusive: 31.6 µM [inhibitor, partial curve]
O=C(NCc1ccccc1F)c1ccc2c(c1)CN(Cc1ccc(O)c(F)c1)CCO2 | inactive
CCC1Oc2ccc(NC(=O)COC)cc2CN(Cc2cc(F)cc(F)c2)C1=O (stereo not drawn) | inactive
O=C1Cc2c(-c3ccc(F)cc3F)n[nH]c2CN1Cc1ccccc1F | inconclusive: 10 µM [inhibitor, full curve, poor fit]
